According to ChEMBL document CHEMBL4888484, “Replenishing the malaria drug discovery pipeline: Screening and hit evaluation of the MMV Hit Generation Library 1 (HGL1) against asexual blood stage Plasmodium falciparum ,using a nano luciferase reporter read-out” (2022):
The whole screen tested about 150,000 compounds, of which about 540 (0.36%) showed an effect of 50% or more. The list shows a part of the results.

Test system: Plasmodium falciparum
Experiment: Primary screen in NF54 nanoGlo assay, in single point, at 2uM, 72h; a lower Z score goes with more inhibition
Assay type: functional, Erythrocyte
Conditions: timepoint 72 hour

Compound | % Inhibition | Z score
Cc1cc(-c2cc(C(F)(F)F)cc(C(F)(F)F)c2)c(=O)[nH]c1C | -1% | 0.24
NC(=O)c1ccc(COc2ccc3c(c2)CCC3=O)cc1 | 32% | -1.4
O=C(NC1CC1)c1ccc(N2CC[C@H](NCc3ccc(F)c(F)c3)C2)nc1 | -17% | 1.67
C[C@@H](c1nnnn1C1CC1)N1CCC(n2ccnc2)CC1 | 3% | -0.5
COc1cc(C(=O)Nc2cccc(Oc3ccccc3C(N)=O)c2)ccc1OC(F)F | -1% | 0.12
CCN(CC)c1ccc2nnc(CCC(=O)Nc3cccnc3)n2n1 | -14% | 2.31
O=C(Cn1nnc2ccccc21)N(Cc1cccnc1)C1(C(=O)Nc2ccc3c(c2)OCO3)CCCC1 | 5% | -0.59
CCC1(N2CCCCC2)CCN(c2nc(N)nc(C(F)(F)F)n2)CC1 | 27% | -3.13
COCCS(=O)(=O)Nc1c(F)c(F)cc(F)c1F | -12% | 1.58
FC(F)(F)C1CCC(Cn2nnnc2C2CCOCC2)CC1 (stereo not drawn) | -8% | 1.25
CCCn1c(N2CCC[C@H](C(=O)NC3CC3)C2)nc2ccccc21 | -17% | 2.72
CC(C)(C#N)NCc1ccc(Cl)cc1 | -18% | 3.34
COc1ccc(-c2nc(C)c(C(=O)Nc3n[nH]c(CC(C)C)n3)s2)cc1OC | 15% | -2.32
O=C1CCN(Cc2cc(C#CCO)cs2)CCN1Cc1cscn1 | -4% | 0.53
COCCn1c([C@H](C)NC(=O)c2cc(-c3ccc(OC)c(OC)c3)n[nH]2)nc2ccccc21 | 7% | -1.03
CN(C)c1ccc(C(=O)Nc2nnc(C3CC3)s2)cc1 | -4% | 0.71
CC(C)(C)OC(=O)N1CCc2[nH]nc(N)c2C1 | -6% | 0.74
CN(CC1COc2ccccc2O1)C(C(=O)O)c1ccsc1 (stereo not drawn) | -13% | 2.51
CCN(C(=O)c1nc2nccc(C)n2n1)c1ccc(C(F)(F)F)cc1 | -11% | 1.78
COc1ccccc1[C@@H](O)Cn1cc(C(=O)Nc2cccc(Cl)c2F)nn1 | -11% | 2.05
COc1ccccc1CN1C(=O)O[C@H]2CN(Cc3sccc3C)C[C@H]21 | -13% | 2.67

Compound | % Inhibition | Z score
C#CCC(C)(C)COC(=O)c1ccnc(C)c1 | -2% | 0.25
CC(C)(C)[C@H]1CCc2c(sc(NC(=O)C3(F)C(F)(F)C(F)(F)C(F)(F)C(F)(F)C3(F)F)c2C#N)C1 | 77% | -6.03
CN1CCc2ncnc(N[C@H]3CC[C@H](Nc4ccccn4)CC3)c2C1 | -12% | 2.28
COc1cccc(CN2CC(CN(C(=O)c3ccc(F)cc3)C(C)C)C(c3cccc(C(F)(F)F)c3)C2)c1 (stereo not drawn) | -7% | 1.09
CC(C)n1nnnc1CN[C@H]1CC(C)(C)OC1(C)C | -18% | 1.49
C[C@H]1Cc2cc(CNC(=O)c3[nH]nc4c3CCC4)ccc2O1 | -3% | 0.56
O=C(Nc1cccc(C#Cc2ccccn2)c1)NC1CCCC1O (stereo not drawn) | -9% | 1.09
N#Cc1ccc(CN[C@@]2(CO)CCOc3ccccc32)cc1 | -2% | 0.37
CN=C(NCc1ccc(OC(C)C)c(F)c1)NCc1ccccn1 | 2% | -0.26
O=C(c1coc(COc2cccc(C(F)(F)F)c2)n1)N1CCN2CCC[C@H]2C1 | -22% | 1.96
CN(CCc1ccccc1)C[C@@H]1OC[C@H](NC(=O)C2CCCC2)[C@H]1O | -5% | 0.79
CN(C)S(=O)(=O)N1CCO[C@@H](CC(c2ccccc2)c2ccccc2)C1 | -6% | 0.73
Cc1ccc(-n2nc3c(N4CCN(C(=O)Nc5cccc(C)c5C)CC4)nnc(C)c3c2C)cc1 | -3% | 0.36
CCN1CCC(CC(=O)NCCCn2cc(Cl)cn2)CC1 | -14% | 1.86
CC(C)CCC(=O)NCC(=O)N[C@@H](C)c1csc(C(C)C)n1 | -9% | 0.99
COc1cc2c(cc1CNC(=O)CN(c1ccc3c(c1)OCCCO3)S(C)(=O)=O)OCCCO2 | -8% | 1.15
COc1ccc(-c2cc3nccc(-c4cccnc4)n3n2)cc1 | -7% | 0.89
O=C(CCN1CCC[C@H](CN2CCN(c3ccccn3)CC2)C1)N1CCN(c2ccccn2)CC1 | -4% | 0.56
Cc1cccc(NC(=O)NC(=O)CN(C)CC(=O)Nc2ccc(Br)cn2)c1C | 6% | -0.83
O=C1CNCCN1[C@H]1CCCN(c2ccnc3ccncc23)C1 | -8% | 0.97
CC(C)CN(CC(C)C)C(=O)c1ccc(C(=O)N(CC(C)C)CC(C)C)nc1 | -38% | 4.52

Compound | % Inhibition | Z score
C=CCc1ccccc1OCCN(C)Cc1nc(C)ccc1O | -5% | 0.89
CCCCOC(=O)N1CCC[C@@]2(CCC(=O)N(CCc3ccccc3)C2)C1 | -1% | 0.16
O[C@@H]1COCCN(CCOc2ccc(F)cc2)C1 | -12% | 1.5
CCOc1cccc(C(=O)N2CCN(CC3CC3)[C@@H]3CS(=O)(=O)C[C@@H]32)c1 | -14% | 1.4
CC1(C)Cc2[nH]ncc2CN(C(=O)Nc2ccccc2N2CCCCC2=O)C1 | -10% | 1.34
CC(C)(C)c1nnnn1C1CCCCC1O (stereo not drawn) | 0% | 0.06
CCOc1ccc(C(=O)N2CCn3cncc3C2)cc1 | -6% | 1.19
CN(C)CC(=O)Nc1cnccc1OC(C)(C)C | -2% | 0.42
CCc1ccsc1C(=O)N(CC#N)CC#N | 8% | -1.34
O=c1c2ccccc2nc(-c2ccc3ccccc3c2)n1Cc1ccc2c(c1)OCO2 | -9% | 1.69
CC(C)c1ccc(C(=O)N[C@H]2CCC(=O)NC2)cc1Cl | -5% | 0.53
O=C(Cn1[nH]c2ccccc2c1=O)NC(Cc1ccccc1)[C@H]1C[C@H](O)C1 (stereo partly drawn) | -19% | 1.69
O=C1CNC(=O)N1CC(=O)N1CC[C@@](O)(c2ccccc2)[C@H]2CCCC[C@@H]21 | -4% | 0.72
CCN1CC(C(=O)N2CCNC(=O)CC2c2ccccc2)CC1=O (stereo not drawn) | 0% | 0.02
O=C1c2cccnc2CN1CCN1CCc2ccccc21 | -20% | 2.31
CCN(CC)C(=O)N1CCC([C@H](O)C(F)(F)F)CC1 | -14% | 1.69
COCc1cc(=O)n(CC(=O)Nc2ccccc2Cl)c(N2CCCC2)n1 | -5% | 0.71
O=C(C1CC1c1ccccc1)n1nnc2ccccc21 (stereo not drawn) | -9% | 1.35
NC(=O)Cn1cc(C(=O)Nc2ccc(Cc3nnc4n3CCC4)cc2)nn1 | -3% | 0.44
CC1CCN(c2nc(-c3c[nH]c4ccccc34)cs2)CC1 | -18% | 1.48
CC1=C[C@@H](CNS(C)(=O)=O)[C@H](C(C)C)C[C@H]1Cc1nnc(-c2ccncc2)o1 | -7% | 1.1

Compound | % Inhibition | Z score
Cc1nn(C)c(C)c1CCC(=O)N(Cc1ccc(OCc2ccccc2)cc1)c1ccccc1 | -7% | 1.35
C[C@H](Oc1cnc2ccccc2c1)C(=O)NCc1cccnc1N1CCCC1 | -3% | 0.38
C[C@H]1CN(C(=O)c2cc(Cl)cn2C)C[C@@H]1C(=O)OC(C)(C)C | -1% | 0.18
COc1ccc(CNC(=O)[C@@H]2NCCc3[nH]cnc32)c(F)c1F | -3% | 0.54
CC(C)CCNC(=O)CC1(N2Cc3ccccc3C2=O)CCN(Cc2ccccc2)CC1 | -6% | 0.88
N#Cc1cnccc1NCC1CCC2(CC1)OCCO2 | -38% | 4.4
O=C(NCC1(O)CCCC1)c1cccc(Br)c1 | -11% | 1.91
COC[C@H]1CCN1C(=O)c1nc2n(n1)CCCN2 | -12% | 1.13
CC(C)(C)c1cccc(OC/C=C/Cn2ccnc2)c1 | -9% | 0.99
CCOc1cccc(CNC(=O)c2c(O)c3cccnc3[nH]c2=O)c1 | -7% | 0.93
CC(C)C[C@H](C)OC(=O)N1CC(c2ncc(C3CC3)cn2)C1 | -8% | 0.7
O=C(Nc1ccccc1)c1cccc(-c2nc(-c3ccc(F)cc3)no2)c1 | -6% | 1.11
Cc1nc(-c2cnn(C)c2)sc1C(=O)O[C@@H](C)C1CC1 | 8% | -1.44
N#CC1(CNC(=O)CNC(=O)C2C3CCCCC32)CC1 (stereo not drawn) | 36% | -5.15
C=CCN=C(NCc1cccnc1)NCc1cccc(OC)c1 | 0% | 0.04
C[C@H]1CN(c2nc3ccccc3c3nnc(C4CCCCC4)n23)CCN1C(=O)c1ccccc1 | 3% | -0.51
Cc1sc2ncnc(N3C[C@H](OC(C)C)[C@@H](O)C3)c2c1C | -16% | 1.99
O=C1NC(=O)C(C2CCCN(C(=O)C3CC3c3cccc(F)c3)C2)N1 (stereo not drawn) | -13% | 1.14
O=C(O)CN(Cc1ccccc1)C(=O)[C@@H]1Cc2ccccc21 | -4% | 0.43
O=C(Nc1nc2ccc(F)cc2s1)c1ccc(OCc2ccccc2)cc1 | -2% | 0.33
COc1ccc(CCC(=O)NC2CCN(c3cc4c(nn3)CCCC4)CC2)cc1 | -21% | 3.67
